Data: PubChem BioAssay AID1508624 (National Center for Advancing Translational Sciences (NCATS), 2021)
Hit rate of the full screen: of about 48,000 compounds, about 120 (0.25%) were called active. Another 4% or so got no clear call; they are omitted. Calls follow the shape of the dose curve; as a rule, active = well fitted activation curve with a large enough effect; inconclusive = small, poorly fitted or top-dose-only effect, or another doubt; inactive = no such curve, though single readings can be large or run the other way. The list shows a part of the results.

Test: Primary qHTS for Identification of Small Molecule Activators of Huntingtin-Antisense Promoter Activity; also: nearly all actives have a fitted effect of over 55% in size
Conditions: HEK293 HTT-AS promoter firefly luciferase reporter, 24 h; series mostly up to 57.5 µM; activity change, positive = activation: at the top concentration
How it was run: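 HEK293 Fluc reporter, 2,500 cells/well, 24 h pre-culture; cpds up to 57.5 uM final, 24 h 37 degrees C; Dual-Glo, 10 min RT; normalized vehicle = 0%, zero RLU = -100%.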

Activity change, positive = activation, inactive:
O=c1c2oc3ccccc3c2n(Cc2ccccc2F)c(=O)n1Cc1ccco1 -13.1%
Cc1ccc(Cn2cc(CCC(=O)NC3CCCCC3)c3ccccc32)cc1 -25.7%
Cc1cc(=O)[nH]c2nnc(SCc3cccc(F)c3)n12 -11.8%
CCOC(=O)NNc1nncc2ccccc12 7.15%
CCCCCSc1nnc2c(n1)OC(c1ccc(C)s1)N(C(C)=O)c1ccccc1-2 (centres undefined) -42.6%
COc1ccc(S(=O)(=O)NC2(C(F)(F)F)NC(=O)N(CCc3ccccc3)C2=O)cc1 (centres undefined) -2.09%
COc1ccccc1NC(=O)CN1C(=O)C(c2ccc(F)cc2)=NC1(C)C -17.8%
Cc1cccc(N2CCN(C(=O)Nc3ccc(F)cc3)CC2C)c1 (centres undefined) -11.2%
Cc1ccccc1NC(=O)Nc1nnc(N(C)Cc2ccccc2)s1 -11.9%
Cc1c(Cl)cccc1N1CC(c2nc3ccccc3n2Cc2ccccc2F)CC1=O (centres undefined) -16%
Cc1cccc(NC(=O)Cn2c(=O)n(Cc3ccc4c(c3)OCO4)c(=O)c3ccccc32)c1 -27.8%
CCS(=O)(=O)c1c(Nc2ccc(F)c(Cl)c2)sc(C(=O)c2ccccc2)c1N -35.5%
CCOc1ccc(-c2ccc(NS(=O)(=O)c3cc(C)ccc3OC)cc2)nn1 -15.3%
Cc1ccc(N2CCN(C(=O)c3nn(C)c4c3CS(=O)(=O)c3ccccc3-4)CC2C)cc1 (centres undefined) -18.8%
COc1ccc(-n2cc3c(c2-c2cccc(Br)c2)c(=O)n(C)c(=O)n3C)cc1OC -24.1%
COc1ccc(-c2cc(C(F)(F)F)nc(SCC(=O)NCc3ccc(F)cc3)n2)cc1 -3.93%
COc1cccc(NC(=O)Cn2c(=O)n(Cc3ccccc3)c(=O)c3c4c(sc32)CN(C(C)=O)CC4)c1 -21%
COC(=O)c1ccccc1NC(=O)c1nc(SCc2ccccc2C)ncc1Cl -0.65%
Cc1cc(C)cc(C(=O)Nc2ccc(-c3cn4cccnc4n3)cc2)c1 -22.1%
COc1ccc(N2C(=O)CCSC23C(=O)N(Cc2ccc(F)cc2)c2ccccc23)cc1Cl (centres undefined) -43.9%
CCC(C)NC(=O)Cn1cnc2sc(C)c(S(=O)(=O)N3CCN(c4ccccc4OC)CC3)c2c1=O (centres undefined) 15.7%
Cc1c(C(=O)Nc2cccc(Cl)c2)oc2ccc(S(=O)(=O)N3CCOCC3)cc12 -15.2%
COc1cccc(NC(=O)N2CCC(CN3CCOCC3)CC2)c1 -12.1%
CCc1ccccc1NC(=O)Cn1c(=O)ccc2cc(S(=O)(=O)N3CCC(C)CC3)ccc21 -25.9%
Cc1ccc(CCNC(=O)CN2N=C(c3ccc(C)cc3)CCC2=O)cc1 -17.8%
Cc1cccc(N2CCN(S(=O)(=O)c3c(C)nc4scc(C)n4c3=O)CC2C)c1 (centres undefined) -22%
CCOC(=O)c1sc(NC(=O)c2nc3nc(C)cc(C(F)F)n3n2)c(C(=O)OC)c1C -2.72%
CCOc1cccc(C2c3c(oc4cc(C)c(C)cc4c3=O)C(=O)N2c2nc(C)c(C)s2)c1 (centres undefined) -6.44%
Cc1ccc(NC(=O)CN2C(=O)C(C)(C)c3cc(S(=O)(=O)N4CCCCC4)ccc32)c(Br)c1 -29.8%
Cn1nc(C(=O)Nc2ccccc2C#N)c2c1-c1ccccc1SC2 -4.79%
Cc1cc(=O)[nH]c(SCC(=O)N2CCN(c3ccccc3)CC2)n1 -11.7%
COc1ccc(-c2nc3ccc(C(=O)NCc4ccc(C)cc4)cc3nc2-c2ccc(OC)cc2)cc1 -8.79%
O=C(CC1N=C2c3ccccc3N=C(SCc3ccccc3Cl)N2C1=O)NC1CCCCC1 (centres undefined) -34%
CC1CCN(S(=O)(=O)c2ccc3c(c2)N(CC(=O)Nc2ccc(F)c(Cl)c2)C(=O)CO3)CC1 -24.5%
CCC(=O)N1CCc2cc(CNS(=O)(=O)c3cc(Cl)ccc3OC)ccc21 -18.6%
COc1ccc(Br)cc1CNC(=O)CCSCc1ccc(Cl)cc1 -15.6%
Cc1nn(CC(=O)N2CCN(c3ccccc3)CC2)c(=O)c2cc3sccc3n12 -4.51%
Cc1ccc(OCCn2c(COc3ccc(Cl)cc3)nc3ccccc32)cc1 14.6%
CCN1CCN(c2cc(C)c3cc(NC(=O)c4cc(OC)cc(OC)c4)ccc3n2)CC1 28%
CCOc1ccc(NC(=O)c2oc3ccccc3c2NC(=O)C(C)Oc2ccccc2)cc1 (centres undefined) -16.5%
CCOc1ccc(CNC(=O)c2cccc(Nc3nc4ccccc4n4nnnc34)c2)cc1OC -39.9%
Cc1ccc(C)c(CN2C(=O)c3ccccc3S(=O)(=O)c3ccc(C(=O)N4CCN(Cc5ccccc5)CC4)cc32)c1 0.212%
Cc1cccc(C)c1NC(=O)CSc1nccn1C -6.24%
CC(C)Cn1c(SCc2cccc(F)c2)nc2ccsc2c1=O -28.3%
O=C(CCn1c(=O)c2cccn2c2cccnc21)NCc1cccc(Br)c1 -2.56%
CC(=O)c1cc2c(cc1N/C(=N/S(=O)(=O)c1ccc(C)cc1)c1ccc(Cl)cc1)OCO2 -14.8%
Cc1ccc2c(=O)cc(C(=O)Nc3ccc(S(=O)(=O)N4CCCC(C)C4)cc3)oc2c1C (centres undefined) 4.61%
COc1ccc(OC)c(C2CC(=O)Nc3ccc4ccccc4c32)c1 (centres undefined) -17.1%
COc1ccc(-c2cn3c(n2)sc2cc(C(=O)NCc4ccccc4)ccc23)cc1 -4.28%
Cc1ccc(CNc2c(C)c(C)nc3nncn23)cc1 -52.2%
COc1ccc(Cc2nc3ccc(C(=O)NCCc4ccc(Cl)cc4)cc3o2)cc1 -5.48%
CCN(C(=O)CCS(=O)(=O)c1cc(Br)cc2c1N(C(=O)C1CC1)CC2)c1cccc(C)c1 -3.37%
CCOCCCn1c(SCC(=O)Nc2ccccc2OC)nc2c(oc3ccccc32)c1=O -31.3%
Cc1ccc(C)c(C(=O)N2CCC(c3nc4c(nnn4Cc4ccccc4)c(=O)[nH]3)CC2)c1 -13.3%
COc1ccccc1C1=Nn2c(nc3sc(C(=O)Nc4ccccc4Cl)c(C)c3c2=O)SC1 -14.6%
CC(NC(=O)c1c(O)nc2ccccn2c1=O)c1ccccc1 (centres undefined) -20.2%
S=c1[nH]c2ccccc2s1 -5.45% [at 116 µM, percent change from vehicle, -100% = no light]
CCOc1ccccc1N1CC(c2nc3ccccc3n2CCCCOc2ccccc2)CC1=O (centres undefined) -9.89%
CCOc1ccc(Nc2oc(/C=C/c3cc(OC)c(OC)c(OC)c3)nc2C#N)cc1 -9.29%
COc1ccc(NC(=O)CN(C)S(=O)(=O)c2cnc[nH]2)cc1 -5.69%
CCOc1ccc(NC(=O)CSc2nc3ccccc3c(=O)n2CCC(=O)NC2CCCCC2)cc1 -7.32%
O=C(COC(=O)c1cc(-c2cccs2)nc2ccccc12)c1ccc(Cl)cc1 14.9%
COc1cc(C(=O)NCCSc2c(C)[nH]c3ccccc23)cc(OC)c1OC -15.1%
O=C(NC1CC(=O)N(c2ccc(Cl)cc2)C1)C1CCCCC1 (centres undefined) -15.4%
COc1cccc(NS(=O)(=O)c2cc(-c3cnc(C4CC4)o3)ccc2C)c1 -45.1%
COc1ccc(-c2noc(C3CC(=O)N(c4ccc5c(c4)OCCO5)C3)n2)c(OC)c1 (centres undefined) -4.42%
O=C(O)CSc1nc2ccccc2nc1N1CCCCC1 -25.4%
COc1ccc(CCNC(=O)CSc2cn(CCNC(=O)c3ccc(OC)c(OC)c3)c3ccccc23)cc1OC -31.4%
COC(=O)c1c(NC(=O)/C(C#N)=C/c2ccc(OC)cc2)sc2c1C(C(=O)OC)CC2 (centres undefined) -10.1%
CCc1ccccc1NC(=O)[C@H](Cc1ccccc1)N1Cc2ccccc2C1=O -6.2%
CCc1ccc(-n2c(=O)c3ccc(C(=O)NCCc4ccccc4)cc3n(CC(N)=O)c2=O)cc1 -27.2%
CCCCOc1ccc(C(=O)NCC2(N3CCN(C)CC3)CCCCC2)cc1 -10.5%
CCS(=O)(=O)N1CCc2cc(C(=O)Nc3ccc(C)c(Cl)c3)ccc21 12.2%
O=C(Nc1nnc(S(=O)(=O)N2CCOCC2)s1)c1cccc(F)c1 9.33%
CCOC(=O)C1CCN(c2nc(-c3ccc(Br)cc3)nc3ccccc23)CC1 -37%
CC(=O)c1cccc(NC(=O)C(Cc2ccccc2)NS(=O)(=O)c2ccc(Br)s2)c1 (centres undefined) -9.55%
O=C(Nc1ccc(Cl)cc1)N1CCC(CN2CCCC2)CC1 -8.48%
Cc1cccc(CCNC(=O)Cn2ncc3c(=O)oc4ccccc4c32)c1 1.55%
Cc1c2cnn(-c3ccccc3)c(=O)c2c(C)n1CC(=O)NCc1ccccc1Br -13.3%
Cc1ccc2c(c1)C(c1ccccc1)N(C(=O)c1ccc(OC(C)C)cc1)CC(=O)N2 (centres undefined) -7.03%
N[C@@]1(C(=O)O)CS(=O)(=O)[C@H]2[C@H](C(=O)O)[C@H]21 -31.2%
COc1ccc(Cn2cc(C(=O)c3ccc(OC)cc3)c(=O)c3cc4c(cc32)OCCO4)cc1 -4.3%
CCC(=O)O[C@]1(C(=O)CO)CC[C@H]2[C@@H]3CCC4=CC(=O)CC[C@]4(C)[C@@H]3CC[C@@]21C 6.6%
COc1ccc(OC)c(NC(=O)c2cn3c4c(ccc(Cl)c4c2=O)OC(C)C3)c1 (centres undefined) -8.41%
COc1ccc(CC(=O)NCc2ccc3c(c2)CCN3C(C)=O)cc1OC -16.9%
CCN(CC)S(=O)(=O)c1ccc2c(c1)c(=O)c(C(=O)NCc1ccc(Cl)cc1)cn2C -6.14%
CCOC(=O)C1CCN(C(=O)c2ccc3c(c2)sc2nc(-c4ccccc4)cn23)CC1 -3.07%
COc1cccc(CNC(=O)C2Cc3cc(S(=O)(=O)N4CCCCCC4)ccc3N2C(C)=O)c1 (centres undefined) 5.52%
Cc1c(C(=O)N(C)C)sc2c1c(=O)n(-c1ccc(F)cc1)c(=O)n2Cc1cc(=O)n2ccccc2n1 -3.41%
Nc1c(C(=O)Nc2ccc(Cl)c(C(F)(F)F)c2)sc2nc(-c3ccncc3)ccc12 -32.4%
COc1ccc(C(=O)COC(=O)c2cc(-c3ccccc3)nc3c(C)cccc23)cc1 0.391% [at 11.5 µM, percent change from vehicle, -100% = no light]
O=C1CCc2cc(S(=O)(=O)NCc3ccc(F)cc3)cc3c2N1CC3 -3.42%
Cc1nc2c(-c3ccccc3)c(C)nn2c(C)c1CCC(=O)N1CCN(c2ccccc2)CC1 -13.1%
CCC(=O)N1CCc2cc(Br)cc(S(=O)(=O)N3CCCC(C(=O)NCc4cccc(OC)c4)C3)c21 (centres undefined) -16.9%
